Experimental findings from paper PMC5155141 are described below.

Chains of the proteins cited; added tags and fusions are not shown.
UniProt Q9ULZ3: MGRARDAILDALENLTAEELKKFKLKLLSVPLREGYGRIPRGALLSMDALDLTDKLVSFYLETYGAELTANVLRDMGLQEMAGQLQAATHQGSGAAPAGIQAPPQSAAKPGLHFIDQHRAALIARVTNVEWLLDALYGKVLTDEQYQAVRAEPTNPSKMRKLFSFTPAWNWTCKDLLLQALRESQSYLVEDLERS
UniProt P29466: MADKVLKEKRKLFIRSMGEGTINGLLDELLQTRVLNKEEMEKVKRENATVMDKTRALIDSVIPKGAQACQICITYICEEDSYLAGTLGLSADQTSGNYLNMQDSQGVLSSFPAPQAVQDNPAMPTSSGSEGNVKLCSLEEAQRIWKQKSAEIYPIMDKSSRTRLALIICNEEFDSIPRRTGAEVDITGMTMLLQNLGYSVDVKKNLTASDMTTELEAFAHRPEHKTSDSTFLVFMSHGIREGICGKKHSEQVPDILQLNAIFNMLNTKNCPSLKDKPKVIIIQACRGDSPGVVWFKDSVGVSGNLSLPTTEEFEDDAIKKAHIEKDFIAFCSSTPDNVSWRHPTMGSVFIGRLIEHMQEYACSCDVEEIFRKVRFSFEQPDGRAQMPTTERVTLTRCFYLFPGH
UniProt Q96P20: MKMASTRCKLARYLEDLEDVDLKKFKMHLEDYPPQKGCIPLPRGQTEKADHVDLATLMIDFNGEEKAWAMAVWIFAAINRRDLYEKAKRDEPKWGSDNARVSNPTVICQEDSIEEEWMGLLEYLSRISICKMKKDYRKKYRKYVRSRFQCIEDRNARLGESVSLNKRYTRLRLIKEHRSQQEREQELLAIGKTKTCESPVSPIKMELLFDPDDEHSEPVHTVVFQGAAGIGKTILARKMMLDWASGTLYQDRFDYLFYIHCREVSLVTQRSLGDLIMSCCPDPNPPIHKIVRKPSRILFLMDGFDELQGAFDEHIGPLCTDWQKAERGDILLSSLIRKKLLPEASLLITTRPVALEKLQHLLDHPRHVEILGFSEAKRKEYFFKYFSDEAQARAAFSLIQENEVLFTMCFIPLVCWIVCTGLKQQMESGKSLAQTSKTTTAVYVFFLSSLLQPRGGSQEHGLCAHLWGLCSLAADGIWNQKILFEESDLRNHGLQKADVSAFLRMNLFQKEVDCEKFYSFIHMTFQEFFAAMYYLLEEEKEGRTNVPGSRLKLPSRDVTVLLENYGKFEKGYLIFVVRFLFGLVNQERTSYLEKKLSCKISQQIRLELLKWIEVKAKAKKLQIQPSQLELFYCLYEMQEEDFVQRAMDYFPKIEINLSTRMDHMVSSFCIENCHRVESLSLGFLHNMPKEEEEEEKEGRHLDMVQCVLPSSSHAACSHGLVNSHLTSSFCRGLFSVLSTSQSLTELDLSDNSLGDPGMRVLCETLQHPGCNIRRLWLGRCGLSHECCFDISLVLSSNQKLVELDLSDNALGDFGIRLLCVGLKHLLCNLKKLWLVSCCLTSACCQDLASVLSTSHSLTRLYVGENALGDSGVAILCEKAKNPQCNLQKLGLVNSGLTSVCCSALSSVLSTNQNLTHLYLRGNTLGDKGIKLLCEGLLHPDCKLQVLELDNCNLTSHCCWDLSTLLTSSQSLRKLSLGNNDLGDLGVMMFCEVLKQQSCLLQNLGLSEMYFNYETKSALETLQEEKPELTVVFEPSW

The target in one experiment is T1, Flag-TRIM31 (human) (UniProt Q9BZY9).
T1 sequence: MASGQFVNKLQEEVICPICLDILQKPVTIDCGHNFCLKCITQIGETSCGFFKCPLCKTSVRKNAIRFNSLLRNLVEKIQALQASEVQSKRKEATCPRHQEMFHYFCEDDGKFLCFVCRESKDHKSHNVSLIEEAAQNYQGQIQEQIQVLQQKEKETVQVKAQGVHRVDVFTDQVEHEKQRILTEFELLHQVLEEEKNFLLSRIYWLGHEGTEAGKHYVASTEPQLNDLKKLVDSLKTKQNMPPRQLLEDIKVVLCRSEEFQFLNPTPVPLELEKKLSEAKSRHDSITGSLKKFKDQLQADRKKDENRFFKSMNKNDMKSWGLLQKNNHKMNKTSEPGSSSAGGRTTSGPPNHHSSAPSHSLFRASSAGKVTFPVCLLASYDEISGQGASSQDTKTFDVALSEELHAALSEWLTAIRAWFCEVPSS
Put plainly: co-IP; HEK293T cells transfected with Flag-TRIM31 (or its mutants) and Myc-tagged partners (or NLRP3 mutants); lysates immunoprecipitated with anti-Flag antibody (Fig. 3f,h) and immunoblotted; IP buffer 1.0% Nonidet P 40, 50 mM Tris-HCl pH 7.4, 50 mM EDTA, 150 mM NaCl.

For experiment [1], the target named is T2, Flag-tagged TRIM31 (in vitro translated) (human) (UniProt Q9BZY9).
T2 sequence: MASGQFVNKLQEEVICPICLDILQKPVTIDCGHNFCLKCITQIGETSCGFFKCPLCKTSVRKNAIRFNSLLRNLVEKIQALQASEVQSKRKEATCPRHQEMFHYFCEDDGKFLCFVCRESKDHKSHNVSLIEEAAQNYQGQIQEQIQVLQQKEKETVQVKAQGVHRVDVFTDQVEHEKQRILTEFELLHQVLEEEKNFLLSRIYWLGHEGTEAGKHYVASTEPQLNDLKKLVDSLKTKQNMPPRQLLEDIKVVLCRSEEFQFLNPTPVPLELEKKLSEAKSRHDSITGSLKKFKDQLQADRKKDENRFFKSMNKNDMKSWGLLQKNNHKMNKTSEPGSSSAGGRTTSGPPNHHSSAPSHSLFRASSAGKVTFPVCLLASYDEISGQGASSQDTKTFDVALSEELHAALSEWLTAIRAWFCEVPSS
Put plainly: co-IP; in vitro binding assay: in vitro translated Flag-tagged TRIM31 and NLRP3 mixed together, IP with Flag antibody, immunoblot with NLRP3 antibody.

Experiment [2] deals with T3, endogenous TRIM31 (THP-1 cells) (human (endogenous in THP-1)) (UniProt Q9BZY9).
T3 sequence: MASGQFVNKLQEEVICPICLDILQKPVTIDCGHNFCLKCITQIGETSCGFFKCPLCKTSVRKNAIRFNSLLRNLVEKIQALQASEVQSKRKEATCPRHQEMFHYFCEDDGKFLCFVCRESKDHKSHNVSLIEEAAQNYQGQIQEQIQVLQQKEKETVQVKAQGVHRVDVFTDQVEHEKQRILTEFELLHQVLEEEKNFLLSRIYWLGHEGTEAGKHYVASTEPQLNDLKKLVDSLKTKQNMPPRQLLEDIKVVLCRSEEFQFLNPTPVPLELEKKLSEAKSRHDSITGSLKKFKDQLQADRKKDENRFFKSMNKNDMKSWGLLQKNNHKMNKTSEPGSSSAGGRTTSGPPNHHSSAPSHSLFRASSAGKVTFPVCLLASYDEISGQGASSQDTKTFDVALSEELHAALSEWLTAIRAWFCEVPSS
Description: co-IP; endogenous proteins from THP-1 cells; IP buffer 1.0% Nonidet P 40, 50 mM Tris-HCl pH 7.4, 50 mM EDTA, 150 mM NaCl; protein G agarose.

For experiment [3], the target named is T4, endogenous TRIM31 (mouse peritoneal macrophages) (mouse (endogenous in peritoneal macrophages)), Q8R0K2.
T4 chain: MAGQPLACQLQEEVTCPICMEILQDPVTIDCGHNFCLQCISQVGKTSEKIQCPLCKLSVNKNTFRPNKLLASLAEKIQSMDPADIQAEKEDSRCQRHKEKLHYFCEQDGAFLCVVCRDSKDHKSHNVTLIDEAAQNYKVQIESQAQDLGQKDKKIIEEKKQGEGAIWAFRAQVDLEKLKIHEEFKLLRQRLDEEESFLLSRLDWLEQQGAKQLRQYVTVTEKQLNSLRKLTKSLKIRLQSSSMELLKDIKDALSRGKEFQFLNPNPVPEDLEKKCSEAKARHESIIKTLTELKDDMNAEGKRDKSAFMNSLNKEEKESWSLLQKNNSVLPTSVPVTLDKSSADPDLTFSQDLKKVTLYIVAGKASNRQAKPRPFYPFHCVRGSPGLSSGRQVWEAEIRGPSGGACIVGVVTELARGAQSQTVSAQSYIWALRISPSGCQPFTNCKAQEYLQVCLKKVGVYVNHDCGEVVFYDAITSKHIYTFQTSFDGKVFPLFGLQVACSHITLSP
Description: co-IP; endogenous proteins from mouse peritoneal macrophages, resting and stimulated with LPS for indicated times; IP buffer 1.0% Nonidet P 40, 50 mM Tris-HCl pH 7.4, 50 mM EDTA, 150 mM NaCl; protein G agarose. The conditions noted are these: remark: other sources report otherwise.

Results are given in words; binding and its absence hold for the method and conditions named. Binding seen in cells or lysates may run through a third protein. Some binding calls cover weakened binding; strength is not graded here. For part of these data: Sequences can lack the tags named with a protein.

Consider Myc-ASC (from UniProt Q9ULZ3 1-195), for which, in the experiment with Flag-TRIM31 (human), the binding result is “no binding”. With “Myc-Caspase-1 (from UniProt P29466 1-404)”, in the experiment with Flag-TRIM31 (human), the binding entry is reported as “no binding”. The same measure, in the same setting: the value for Myc-NLRP3 (from UniProt Q96P20 1-1036) was “binds”. With “NLRP3 (in vitro translated) (from UniProt Q96P20 1-1036)”, in experiment [1], the binding result is given as “binds”. As to “endogenous NLRP3 (THP-1 cells) (from UniProt Q96P20 1-1036)”, in experiment [2], the binding entry was “binds”.

B1: endogenous NLRP3 (mouse peritoneal macrophages), Q8R4B8 1-1033 (protein)
chain: MTSVRCKLAQYLEDLEDVDLKKFKMHLEDYPPEKGCIPVPRGQMEKADHLDLATLMIDFNGEEKAWAMAVWIFAAINRRDLWEKAKKDQPEWNDTCTSHSSMVCQEDSLEEEWMGLLGYLSRISICKKKKDYCKMYRRHVRSRFYSIKDRNARLGESVDLNSRYTQLQLVKEHPSKQEREHELLTIGRTKMRDSPMSSLKLELLFEPEDGHSEPVHTVVFQGAAGIGKTILARKIMLDWALGKLFKDKFDYLFFIHCREVSLRTPRSLADLIVSCWPDPNPPVCKILRKPSRILFLMDGFDELQGAFDEHIGEVCTDWQKAVRGDILLSSLIRKKLLPKASLLITTRPVALEKLQHLLDHPRHVEILGFSEAKRKEYFFKYFSNELQAREAFRLIQENEVLFTMCFIPLVCWIVCTGLKQQMETGKSLAQTSKTTTAVYVFFLSSLLQSRGGIEEHLFSDYLQGLCSLAADGIWNQKILFEECDLRKHGLQKTDVSAFLRMNVFQKEVDCERFYSFSHMTFQEFFAAMYYLLEEEAEGETVRKGPGGCSDLLNRDVKVLLENYGKFEKGYLIFVVRFLFGLVNQERTSYLEKKLSCKISQQVRLELLKWIEVKAKAKKLQWQPSQLELFYCLYEMQEEDFVQSAMDHFPKIEINLSTRMDHVVSSFCIKNCHRVKTLSLGFFHNSPKEEEEERRGGRPLDQVQCVFPDTHVACSSRLVNCCLTSSFCRGLFSSLSTNRSLTELDLSDNTLGDPGMRVLCEALQHPGCNIQRLWLGRCGLSHQCCFDISSVLSSSQKLVELDLSDNALGDFGIRLLCVGLKHLLCNLQKLWLVSCCLTSACCQDLALVLSSNHSLTRLYIGENALGDSGVQVLCEKMKDPQCNLQKLGLVNSGLTSICCSALTSVLKTNQNFTHLYLRSNALGDTGLRLLCEGLLHPDCKLQMLELDNCSLTSHSCWNLSTILTHNHSLRKLNLGNNDLGDLCVVTLCEVLKQQGCLLQSLQLGEMYLNRETKRALEALQEEKPELTIVFEISW
Turning to B1, in experiment [3], the binding result was “binds”.
